Experiment [1] addresses HUWE1 (3975–4374) (human) (UniProt Q7Z6Z7). As to the kind of experiment: SEC; MBP-tagged activation segment (or MBP) and HUWE1 constructs, each alone at 120 μM and as a 1.5:1 molar mixture; Superdex 200 Increase 3.2/300, 4°C, 20 mM HEPES pH 8.0, 100 mM NaCl, 1 mM EDTA, 5 mM DTT; both purified. In general terms: In gel filtration, larger molecules generally elute earlier.
Experiment [2] addresses HUWE1 (3993–4374), HECT domain (human) (UniProt Q7Z6Z7). The description is as above.
Experiment [3] concerns the target HUWE1 (3951–4374) I3969A/F3982A (human) (UniProt Q7Z6Z7). As to the kind of experiment: SEC-MALS; proteins injected at high concentration (~350 to 400 μM; highest point of Figure 3A, Figures 4A, 4F, 4G, Table 2); Superdex 200 10/300 GL, room temperature, 20 mM HEPES pH 8.0, 250 mM NaCl, 1 mM EDTA, 5 mM DTT; both purified.
Experiment [4] addresses HUWE1 (3975–4374) (human) (UniProt Q7Z6Z7). The experiment in a line: SAXS; ~40 μM protein, 10°C, 20 mM HEPES pH 8.0, 150 mM NaCl, 1 mM EDTA, 5 mM DTT; profiles compared with curves simulated from the crystal structure; Rg from Guinier fits; both purified.
Experiment [5] has the same target. As to the kind of experiment: SEC-MALS; proteins injected at high concentration (~350 to 400 μM; highest point of Figure 3A, Figures 4A, 4F, 4G, Table 2); Superdex 200 10/300 GL, room temperature, 20 mM HEPES pH 8.0, 250 mM NaCl, 1 mM EDTA, 5 mM DTT; both purified.
Experiment [6] has as its target HUWE1 (2474–4374) WT, HA- and FLAG-tagged versions (human) (UniProt Q7Z6Z7). The experiment in a line: co-IP; inverse co-IP (FLAG-IP) from transiently transfected HeLa cells; data not shown.
For experiment [7] the target is unchanged. As to the kind of experiment: co-IP; HeLa cells stably expressing HA- and FLAG-tagged HUWE1 (2474–4374) WT, made by lentiviral transduction (higher HUWE1 levels than transient transfection).
The target is the same in experiment [8]. The experiment in a line: co-IP; HeLa cells stably expressing HA- and FLAG-tagged HUWE1 (2474–4374) WT, made by transposon-mediated gene delivery (significantly lower HUWE1 levels than transient transfection).
The target is the same in experiment [9]. The experiment in a line: co-IP; HeLa cells transiently transfected with HA- and FLAG-tagged HUWE1 (2474–4374); lysis in TNT buffer (50 mM Tris pH 8.0, 250 mM NaCl, 1% Triton X-100); protein G-agarose with anti-HA or anti-FLAG.
For experiment [10], the target named is T1, HUWE1 (3993–4374), HECT domain (human), Q7Z6Z7.
T1 chain: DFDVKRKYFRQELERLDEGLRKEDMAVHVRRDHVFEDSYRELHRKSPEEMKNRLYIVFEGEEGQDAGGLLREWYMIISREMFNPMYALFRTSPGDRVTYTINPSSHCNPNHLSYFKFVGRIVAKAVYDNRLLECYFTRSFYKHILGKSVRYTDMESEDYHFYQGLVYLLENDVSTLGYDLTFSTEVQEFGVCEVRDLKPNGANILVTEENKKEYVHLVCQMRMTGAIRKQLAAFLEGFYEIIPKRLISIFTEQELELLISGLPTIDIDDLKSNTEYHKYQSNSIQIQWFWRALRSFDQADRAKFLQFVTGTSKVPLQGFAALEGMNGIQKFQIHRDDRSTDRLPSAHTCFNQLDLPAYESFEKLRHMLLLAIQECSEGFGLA
As to the kind of experiment: SEC-MALS; proteins injected at high concentration (~350 to 400 μM; highest point of Figure 3A, Figures 4A, 4F, 4G, Table 2); Superdex 200 10/300 GL, room temperature, 20 mM HEPES pH 8.0, 250 mM NaCl, 1 mM EDTA, 5 mM DTT; both purified. The following applies: remark: other sources report otherwise.

These are yes or no findings as the source states them, for the method shown. For some of these results: In cells and extracts the contact can be indirect. Some binding calls cover weakened binding; strength is not graded here.

With “MBP-tagged activation segment of HUWE1 (residues 3843–3902) (from UniProt Q7Z6Z7 3843-3902) (domain or fragment)”, the binding entry was “no binding (tested: 120 μM, 1.5:1 molar mixture)” in [1] and “no binding (tested: 120 μM, 1.5:1 molar mixture)” in experiment [2].

Take “HUWE1 (3951–4374) I3969A/F3982A (from UniProt Q7Z6Z7 3951-4374) (domain or fragment)”: the binding result in [3] is given as “no binding (tested: ~350 μM)”.

With “HUWE1 (3975–4374) (from UniProt Q7Z6Z7 3975-4374) (domain or fragment)”, the binding entry in [4] was “no binding (tested: 40 μM)”; in experiment [5], “no binding (tested: 380 μM)”.

As to “HUWE1 (2474–4374) WT, HA- and FLAG-tagged versions (from UniProt Q7Z6Z7 2474-4374) (domain or fragment)”, the binding result in experiment [6], in experiment [7], in experiment [8] and in [9] was “binds” each time.

B1: HUWE1 (3993–4374), HECT domain, Q7Z6Z7 3993-4374 (domain or fragment)
chain: DFDVKRKYFRQELERLDEGLRKEDMAVHVRRDHVFEDSYRELHRKSPEEMKNRLYIVFEGEEGQDAGGLLREWYMIISREMFNPMYALFRTSPGDRVTYTINPSSHCNPNHLSYFKFVGRIVAKAVYDNRLLECYFTRSFYKHILGKSVRYTDMESEDYHFYQGLVYLLENDVSTLGYDLTFSTEVQEFGVCEVRDLKPNGANILVTEENKKEYVHLVCQMRMTGAIRKQLAAFLEGFYEIIPKRLISIFTEQELELLISGLPTIDIDDLKSNTEYHKYQSNSIQIQWFWRALRSFDQADRAKFLQFVTGTSKVPLQGFAALEGMNGIQKFQIHRDDRSTDRLPSAHTCFNQLDLPAYESFEKLRHMLLLAIQECSEGFGLA
Turning to B1, the binding entry in experiment [10] is reported as “no binding (tested: 400 μM)”.

The record behind these values is paper PMC5308896, “A conformational switch regulates the ubiquitin ligase HUWE1” (eLife, 2017).
